Measurements from article PMC9911399, “Two distinct binding modes provide the RNA-binding protein RbFox with extraordinary sequence specificity”.
Residue numbers refer to the chain shown, from its start. The list shows a part of the results.

T1: RBFOX1 RRM (Homo sapiens, UniProt Q9NWB1 109-208)
T1 sequence: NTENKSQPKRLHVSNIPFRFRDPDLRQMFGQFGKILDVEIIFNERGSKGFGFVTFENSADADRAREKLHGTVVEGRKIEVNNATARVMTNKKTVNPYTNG

B1: UCUAAUC (DNA:RNA)
RNA: GGGAGACCGGAAUUCAGAUUGUCCUCUAAUCUUAAAUCCCGUCGUAGCCACCA
DNA 1: CAATCTGAATTCCGGTCTCCC
DNA 2: TGGTGGCTACGACGGGATT
B2: UGGAAUC (DNA:RNA)
RNA: B1 RNA with C26G, U27G
DNA 1: CAATCTGAATTCCGGTCTCCC
DNA 2: TGGTGGCTACGACGGGATT
B3: CCGGGUC (DNA:RNA)
RNA: B1 RNA with U25C, U27G, A28G, A29G
DNA 1: CAATCTGAATTCCGGTCTCCC
DNA 2: TGGTGGCTACGACGGGATT
B4: UAUGGAG (DNA:RNA)
RNA: B1 RNA with C26A, A28G, A29G, U30A, C31G
DNA 1: CAATCTGAATTCCGGTCTCCC
DNA 2: TGGTGGCTACGACGGGATT
B5: UACGGAC (DNA:RNA)
RNA: B1 RNA with C26A, U27C, A28G, A29G, U30A
DNA 1: CAATCTGAATTCCGGTCTCCC
DNA 2: TGGTGGCTACGACGGGATT
B6: UUCUGCU (DNA:RNA)
RNA: B1 RNA with C26U, U27C, A28U, A29G, U30C, C31U
DNA 1: CAATCTGAATTCCGGTCTCCC
DNA 2: TGGTGGCTACGACGGGATT
B7: UCUUACA (DNA:RNA)
RNA: B1 RNA with A28U, U30C, C31A
DNA 1: CAATCTGAATTCCGGTCTCCC
DNA 2: TGGTGGCTACGACGGGATT
B8: UACGCCC (DNA:RNA)
RNA: B1 RNA with C26A, U27C, A28G, A29C, U30C
DNA 1: CAATCTGAATTCCGGTCTCCC
DNA 2: TGGTGGCTACGACGGGATT
B9: GGCACGC (DNA:RNA)
RNA: B1 RNA with U25G, C26G, U27C, A29C, U30G
DNA 1: CAATCTGAATTCCGGTCTCCC
DNA 2: TGGTGGCTACGACGGGATT
B10: ACUUGAG (DNA:RNA)
RNA: B1 RNA with U25A, A28U, A29G, U30A, C31G
DNA 1: CAATCTGAATTCCGGTCTCCC
DNA 2: TGGTGGCTACGACGGGATT
B11: AUAGAAC (DNA:RNA)
RNA: B1 RNA with U25A, C26U, U27A, A28G, U30A
DNA 1: CAATCTGAATTCCGGTCTCCC
DNA 2: TGGTGGCTACGACGGGATT
B12: CUUAGCC (DNA:RNA)
RNA: B1 RNA with U25C, C26U, A29G, U30C
DNA 1: CAATCTGAATTCCGGTCTCCC
DNA 2: TGGTGGCTACGACGGGATT
B13: UGAACAA (DNA:RNA)
RNA: B1 RNA with C26G, U27A, A29C, U30A, C31A
DNA 1: CAATCTGAATTCCGGTCTCCC
DNA 2: TGGTGGCTACGACGGGATT
B14: GGGAGGC (DNA:RNA)
RNA: B1 RNA with U25G, C26G, U27G, A29G, U30G
DNA 1: CAATCTGAATTCCGGTCTCCC
DNA 2: TGGTGGCTACGACGGGATT
B15: GUGAACU (DNA:RNA)
RNA: B1 RNA with U25G, C26U, U27G, U30C, C31U
DNA 1: CAATCTGAATTCCGGTCTCCC
DNA 2: TGGTGGCTACGACGGGATT
B16: CCUAUGG (DNA:RNA)
RNA: B1 RNA with U25C, A29U, U30G, C31G
DNA 1: CAATCTGAATTCCGGTCTCCC
DNA 2: TGGTGGCTACGACGGGATT
B17: AAGCCAC (DNA:RNA)
RNA: B1 RNA with U25A, C26A, U27G, A28C, A29C, U30A
DNA 1: CAATCTGAATTCCGGTCTCCC
DNA 2: TGGTGGCTACGACGGGATT
B18: CUUGAUC (DNA:RNA)
RNA: B1 RNA with U25C, C26U, A28G
DNA 1: CAATCTGAATTCCGGTCTCCC
DNA 2: TGGTGGCTACGACGGGATT
B19: AUUCGAC (DNA:RNA)
RNA: B1 RNA with U25A, C26U, A28C, A29G, U30A
DNA 1: CAATCTGAATTCCGGTCTCCC
DNA 2: TGGTGGCTACGACGGGATT
B20: CCCUAUG (DNA:RNA)
RNA: B1 RNA with U25C, U27C, A28U, C31G
DNA 1: CAATCTGAATTCCGGTCTCCC
DNA 2: TGGTGGCTACGACGGGATT
B21: GAUUUUU (DNA:RNA)
RNA: B1 RNA with U25G, C26A, A28U, A29U, C31U
DNA 1: CAATCTGAATTCCGGTCTCCC
DNA 2: TGGTGGCTACGACGGGATT
B22: AAGUGUA (DNA:RNA)
RNA: B1 RNA with U25A, C26A, U27G, A28U, A29G, C31A
DNA 1: CAATCTGAATTCCGGTCTCCC
DNA 2: TGGTGGCTACGACGGGATT
B23: GAGGGAG (DNA:RNA)
RNA: GGGAGACCGGAAUUCAGAUUGUCCGAGGGAGUUAAAUCCCGUCGUAGCCACCA
DNA 1: CAATCTGAATTCCGGTCTCCC
DNA 2: TGGTGGCTACGACGGGATT
B24: UACCGCU (DNA:RNA)
RNA: B23 RNA with G25U, G27C, G28C, A30C, G31U
DNA 1: CAATCTGAATTCCGGTCTCCC
DNA 2: TGGTGGCTACGACGGGATT
B25: UCGUAUA (DNA:RNA)
RNA: B1 RNA with U27G, A28U, C31A
DNA 1: CAATCTGAATTCCGGTCTCCC
DNA 2: TGGTGGCTACGACGGGATT
B26: GCGAUGA (DNA:RNA)
RNA: B23 RNA with A26C, G28A, G29U, A30G, G31A
DNA 1: CAATCTGAATTCCGGTCTCCC
DNA 2: TGGTGGCTACGACGGGATT
B27: UGCUUUC (DNA:RNA)
RNA: B1 RNA with C26G, U27C, A28U, A29U
DNA 1: CAATCTGAATTCCGGTCTCCC
DNA 2: TGGTGGCTACGACGGGATT
B28: CUUAGUC (DNA:RNA)
RNA: B1 RNA with U25C, C26U, A29G
DNA 1: CAATCTGAATTCCGGTCTCCC
DNA 2: TGGTGGCTACGACGGGATT
B29: GAGUUGA (DNA:RNA)
RNA: B23 RNA with G28U, G29U, A30G, G31A
DNA 1: CAATCTGAATTCCGGTCTCCC
DNA 2: TGGTGGCTACGACGGGATT
B30: CUCUCAC (DNA:RNA)
RNA: B23 RNA with G25C, A26U, G27C, G28U, G29C, G31C
DNA 1: CAATCTGAATTCCGGTCTCCC
DNA 2: TGGTGGCTACGACGGGATT
B31: CACGGAA (DNA:RNA)
RNA: B23 RNA with G25C, G27C, G31A
DNA 1: CAATCTGAATTCCGGTCTCCC
DNA 2: TGGTGGCTACGACGGGATT

Molecular target: T1, RBFOX1 RRM
Experiment: EMSA; HiTS-Eq, 1 nM pool, 10 min; buffer printed only for the single-RNA assays: 10 mM Tris pH 7.5, 150 mM NaCl, 3.4 mM EDTA, 0.001% NP-40, 30 C
Settings: tags: His6 N-terminal (pET28a); label: 5' 32P
How it was run: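 A pool of RNA with 7 randomized nucleotides, 5′-radiolabelled and with DNA-annealed flanks, was equilibrated at 1 nM for 10 min in 50 µL with purified RbFox RRM, wild type or mutant, across increasing protein concentrations. Free RNA was separated by 8% native PAGE, excised, reverse-transcribed, barcoded by PCR and sequenced. Relative association constants were obtained from read-count changes of each RNA species versus the control reaction and normalised to the cognate motif.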

Q: With B1 as the binder, how does the binding signal read?
A: Its binding signal is 0.00734 KA relative to UGCAUGU.

Q: How did the binding signal turn out when B2 was run?
A: The binding signal was 0.0233 KA relative to UGCAUGU.

Q: For B3, which binding signal is on record?
A: The binding signal was 0.0244 KA relative to UGCAUGU.

Q: B4 was tested. Which binding signal did it give?
A: The binding signal was 0.0043 KA relative to UGCAUGU.

Q: For B5, which binding signal is on record?
A: Its binding signal is 0.00445 KA relative to UGCAUGU.

Q: For B6, which binding signal is on record?
A: The binding signal was 0.0203 KA relative to UGCAUGU.

Q: How did the binding signal turn out when B7 was run?
A: The binding signal was 0.00155 KA relative to UGCAUGU.

Q: How did the binding signal turn out when B8 was run?
A: Its binding signal is 0.0035 KA relative to UGCAUGU.

Q: B9 was tested. Which binding signal did it give?
A: Its binding signal is 0.0238 KA relative to UGCAUGU.

Q: B10 was tested. Which binding signal did it give?
A: Its binding signal is 0.0165 KA relative to UGCAUGU.

Q: B11 was tested. Which binding signal did it give?
A: Its binding signal is 0.00183 KA relative to UGCAUGU.

Q: Which binding signal does the source give for B12 here?
A: The binding signal was 0.00658 KA relative to UGCAUGU.

Q: How did the binding signal turn out when B13 was run?
A: The binding signal was 0.0072 KA relative to UGCAUGU.

Q: With B14 as the binder, how does the binding signal read?
A: The binding signal was 0.0189 KA relative to UGCAUGU.

Q: B15 was tested. Which binding signal did it give?
A: The binding signal was 0.0141 KA relative to UGCAUGU.

Q: Which binding signal does the source give for B16 here?
A: Its binding signal is 0.00999 KA relative to UGCAUGU.

Q: How did the binding signal turn out when B17 was run?
A: The binding signal was 0.00252 KA relative to UGCAUGU.

Q: B18 was tested. Which binding signal did it give?
A: The binding signal was 0.0112 KA relative to UGCAUGU.

Q: How did the binding signal turn out when B19 was run?
A: Its binding signal is 0.00912 KA relative to UGCAUGU.

Q: With B20 as the binder, how does the binding signal read?
A: The binding signal was 0.0081 KA relative to UGCAUGU.

Q: How did the binding signal turn out when B21 was run?
A: Its binding signal is 0.0168 KA relative to UGCAUGU.

Q: Which binding signal does the source give for B22 here?
A: Its binding signal is 0.00628 KA relative to UGCAUGU.

Q: For B23, which binding signal is on record?
A: Its binding signal is 0.018 KA relative to UGCAUGU.

Q: Which binding signal does the source give for B24 here?
A: The binding signal was 0.00556 KA relative to UGCAUGU.

Q: B25 was tested. Which binding signal did it give?
A: The binding signal was 0.00531 KA relative to UGCAUGU.

Q: Which binding signal does the source give for B26 here?
A: Its binding signal is 0.0185 KA relative to UGCAUGU.

Q: Which binding signal does the source give for B27 here?
A: The binding signal was 0.0169 KA relative to UGCAUGU.

Q: For B28, which binding signal is on record?
A: Its binding signal is 0.0139 KA relative to UGCAUGU.

Q: B29 was tested. Which binding signal did it give?
A: Its binding signal is 0.0206 KA relative to UGCAUGU.

Q: For B30, which binding signal is on record?
A: Its binding signal is 0.00565 KA relative to UGCAUGU.

Q: B31 was tested. Which binding signal did it give?
A: The binding signal was 0.00985 KA relative to UGCAUGU.
